According to patent US20250223366A1, “MONOCLONAL ANTIBODIES AND BISPECIFIC ANTIBODY AGAINST C-MET” (BIOTHEUS INC., priority 2022, published 2025):

Experiments:
HCC827 cells = test: Binding activity to tumor cells, HCC827 (flow cytometry); parameters: species or system human; details: high expression of EGFR and c-Met
Source text: A375 cells were human malignant melanoma cells and purchased from Addexbio, which were capable of low expression of EGFR and c-Met receptors. H292 cells were human lung adenocarcinoma cells and purchased from procell, which were capable of high expression of EGFR and c-Met receptors. HCC827 cells were human non-small cell lung cancer cells and purchased from the Cell Bank of the Chinese Academy of Sciences, which were capable of high expression of EGFR and c-Met receptors. The expanded cells were adjusted to an appropriate cell density, and added to a 96-well flow plate. After centrifugation, the gradiently diluted samples to be tested were added and incubated at 4° C. for 1 hour. The cells were washed twice with PBS, then a fluorescent secondary antibody, diluted to an appropriate concentration, was added, incubated at 4° C. for 30 min, and washed twice with PBS. The cells were resuspended by PBS, and detected on a CytoFlex flow cytometer, and corresponding MFI was calculated.

A375/H1975/HCC827 cells = test: ADCC induction, CD16a-NFAT-Luc Jurkat reporter gene cells; format: cell-based, human; details: A375, H1975, HCC827 target cells, CD16a-NFAT-Luc Jurkat effector cells, 6 h, FIG. 9
Source text: A375 cells were human malignant melanoma cells and purchased from Addexbio, which were capable of expressing EGFR and c-Met receptors. H1975 cells were human lung adenocarcinoma cells and purchased from Addexbio, which were capable of highly expressing EGFR and c-Met receptors. HCC827 cells were human non-small cell lung cancer cells and purchased from the Cell Bank of the Chinese Academy of Sciences, which were capable of highly expressing EGFR and c-Met receptors. […]

[1] = test system: H292 human lung cancer tumor cells; test: Experimental Model 1: H292 tumor-bearing model; format: in vivo, CB-17 SCID mice; details: H292, Day 7: 10 mg/kg; Day 21: 2 mg/kg; last measured 29 days after inoculation
Description: In this experiment, CB-17 SCID mice were subcutaneously inoculated with H292 human lung cancer tumor cells to establish a tumor-bearing model and determine the anti-tumor effect of the anti-EGFRxc-Met bispecific antibody. Sufficient H292 cells were cultured and expanded in vitro, and the cells were collected after trypsin digestion. After washing with PBS for 3 times, the cells were counted and inoculated subcutaneously at the right abdomen of female 8-week-old CB-17 SCID mice (purchased from Beijing Weitong Lihua) at an amount of 3×10^6 cells/mouse. The subcutaneous tumor formation of tumor cells in the mice was observed daily, and the maximum width axis W and the maximum length axis L of the subcutaneous tumor on the right abdomen of each animal were measured with a vernier caliper, and the weight of each mouse was weighed with an electronic balance. The subcutaneous tumor volume on the right abdomen of each mouse was calculated according to the following formula: tumor volume T=1/2×W×W×L. The mice with too large and too small tumor volumes were eliminated, and the remained mice were divided into 4 groups according to the average tumor volume, with 6 mice in each group. […]
The tumor volume and weight of mice were measured 2 to 3 times a week. The weight and tumor volume of mice were measured for the last time 29 days after the tumor cell inoculation, and then the mice were euthanized.

[2] = test system: H1975 human lung cancer tumor cells; test: Experimental Model 2: H1975 tumor-bearing model; format: in vivo, CB-17 SCID mice; details: last measured 24 days after inoculation
Description: In this experiment, CB-17 SCID mice were subcutaneously inoculated with H1975 human lung cancer tumor cells to establish a tumor-bearing model and determine the anti-tumor effect of the anti-EGFRxc-Met bispecific antibody. Sufficient H1975 cells were cultured and expanded in vitro, and the cells were collected after trypsin digestion. After washing 3 times with PBS, the cells were counted, and inoculated subcutaneously at 3×10^6 cells/mouse into the right abdomen of female 8-week-old CB-17 SCID mice (purchased from Beijing Weitong Lihua). The subcutaneous tumor formation of tumor cells in the mice was observed daily. The maximum width axis W and the maximum length axis L of the subcutaneous tumor on the right abdomen of each animal were measured with a vernier caliper, and the weight of each mouse was weighed with an electronic balance. The subcutaneous tumor volume on the right abdomen of each mouse was calculated according to the following formula: tumor volume T=1/2×W×W×L. The mice with too large and too small tumor volumes were eliminated, and the remained mice were divided into 4 groups according to the average tumor volume, with 6 mice in each group. The mice were divided into groups according to the grouping and dosing scheme in Table 7 and injected with the corresponding doses of antibodies.
The tumor volume and body weight of mice were measured 2 to 3 times a week. The body weight and tumor volume of mice were measured for the last time 24 days after the tumor cell inoculation, and then the mice were euthanized.

[3] = test system: H1975-HGF human lung cancer cells; test: Experimental Model 5: H1975-HGF tumor-bearing model, combination with Osimertinib; format: in vivo, CB-17 SCID mice; details: antibody Day 16 and Day 18: 3 mg/kg, Osimertinib Days 16 to 22: 3 mg/kg/day, last measured 28 days after inoculation
Source text: In this experiment, the in vivo efficacy of the bispecific antibody of the present application in combination with an small molecule EGFR inhibitor (e.g., Osimertinib) was detected. Using the lentiviral transfection method, the cDNA encoding human HGF (hepatocyte growth factor) (the sequence was from UniProtKB P14210) was constructed on the pLVX-neu vector by General Biol, and the plasmid was transfected into H1975 cells to construct a cell line ([…]) with stable expression of HGF. In this experiment, CB-17 SCID mice were subcutaneously inoculated with H1975-HGF human lung cancer cells to establish a tumor-bearing model and determine the anti-tumor effect of the anti-EGFRxc-Met bispecific antibody. The model construction process was the same as that of Experimental Model 2. The mice were divided into groups according to the grouping and dosing scheme in Table 10 and the corresponding doses of antibodies were injected.
The tumor volume and body weight of mice were measured 2 to 3 times a week. The body weight and tumor volume of mice were measured for the last time 28 days after the tumor cell inoculation, and then the mice were euthanized.

HCC827-HGF luc = test: Cell killing combined with EGFR small molecule inhibitor, HCC827-HGF luc cells with or without PBMC; format: cell-based, human; details: combined with Gefitinib or Erlotinib, 48 h, FIG. 11
Source text: Using lentiviral transfection, cDNAs encoding luciferase (the sequence was from Uniprot, P08659) and human HGF (hepatocyte growth factor) (the sequence was from UniProtKB P14210) were constructed on the pLVX-neu vector by General Biol, and the plasmid was transfected into HCC827 cells to construct a cell line (HCC827-HGF luc) with stable co-expression of luciferase and HGF. Since overexpression of HGF makes HCC827 cells resistant to first-generation EGFR small molecule inhibitors, an experiment of combining antibodies with first-generation small molecules was designed. The expanded luciferase stably transfected cell line (HCC827-HGF Luc) was digested, centrifuged, counted, and resuspended in working medium (10% FBS+RPMI 1640). The cells were adjusted to a density of 3×10^4/ml, and added to a culture plate at 100 μL per well. PBMC cells were resuscitated from liquid nitrogen, centrifuged, then resuspended in working medium, and added to a culture flask for adherent culture overnight to remove mononuclear cells. […]

[4] = test system: H292 human lung cancer tumor cells; test: Experimental Model 3: H292 tumor-bearing model, different doses; format: in vivo, CB-17 SCID mice; details: last measured 30 days after inoculation
Description: In this experiment, CB-17 SCID mice were subcutaneously inoculated with H292 human lung cancer tumor cells to establish a tumor-bearing model and compare the anti-tumor effects of different doses of anti-EGFRxc-Met bispecific antibodies. The mouse model establishment process was the same as Experimental Model 1. The groups were divided according to the grouping and administration scheme in Table 8 and the corresponding doses of antibodies were injected.
The tumor volume and weight of mice were measured 2 to 3 times a week. The weight and tumor volume of mice were measured for the last time 30 days after the tumor cell inoculation, and then the mice were euthanized.

[5] = test system: H292 human lung cancer tumor cells; test: Experimental Model 4: H292 tumor-bearing model, comparison with Rybrevant; format: in vivo, CB-17 SCID mice; details: H292, single dose Day 14: 10 mg/kg; last measured 27 days after inoculation
Source text: In this experiment, CB-17 SCID mice were subcutaneously inoculated with H292 human lung cancer tumor cells to establish a tumor-bearing model, and the anti-EGFRxc-Met bispecific antibody was compared with the commercially available EGFRxc-Met bispecific antibody Rybrevant (purchased from Johnson & Johnson, batch number: LHS3G02) (this antibody had been published at various oncology conferences and was also known as JNJ-6372) in terms of anti-tumor effect. The mouse model establishment process was the same as that of Experimental Model 1. The groups were divided according to the grouping and dosing scheme in Table 9 and the corresponding doses of antibodies were injected.
The tumor volume and body weight of the mice were measured 2 to 3 times a week. The weight and tumor volume of the mice were measured for the last time 27 days after the inoculation of tumor cells, and the mice were euthanized.

EC50 (HCC827 cells): 3.67 nM
B1: EGFRxMET-136 Afu: afucosylated bispecific antibody; c-Met HC/LC SEQ ID NO: 23/24, EGFR HC/LC SEQ ID NO: 25/26; the final molecule (antibody)
heavy 1: EVQLQESGPGLVKPSETLSLTCTVSGGSVTSVNYYWKWIRQPPGKGLEWIGYISYSGNTNYNPSLKSRVTISVDTSKNQFSLKLSSVTAADTAVYYCVRAPYYYMDVWSKGTTVTVSSASTKGPSVFPLAPSSKSTSGGTAALGCQVEDYFPEPVTVSWNSGALTSGVHTFPAVLQSSGLYELSSVVTVPSSSLGTQTYICNVNHKPSNTKVDKKV[skipping human IgG1 Fc with changes]
light 1: DIVMTQSPSSVSASVGDRVTITCRASQGISSWLAWYQQKPGKAPKLLIYAVSSLQSGVPSRFSGSGSGTDFTLTISSLQPEDFATYFCQQANSFPLTFGGGTKVEIKRTVAAPSVFIFPPSDEQLKSGRASVVCLLNNFYPREAKVQWKVDNALQSGNSQESVTEQDSKDSTYSLSSRLQLSKADYEKHKVYACEVTHQGLSSPVTKSFNRGEC
heavy 2: EVQLVESGGGVVQPGRSLRLSCAASGFTFSTYGMHWVRQAPGKGLEWVAVIWDDGSYKYYGDSVKGRFTISRDNSKNTLYLQMNSLRAEDTAVYYCARDGITMVRGVMKDYFDYWGQGTLVTVSSASTKGPSVFPRAPSSKSTSGGTAALGCLVRDYFPEPVTVSWNSGALTSGVHTFPAVLQSSGLYSLSSVVTVPSSSLGTQTYICNVNHKPSNTKVDKKV[skipping human IgG1 Fc with changes]
light 2: DIQLTQSPSSLSASVGDRVTITCRASQDISSALVWYQQKPGKAPKLLIYDASSLESGVPSRFSGSESGTDFTLTISSLQPEDFATYYCQQFNSYPLTFGGGTKVEIKRTVAAPSVFIFPPSDEELKSGTASVQCLLNNFYPREAKVQWKVDNALQSGNSQESVTEQDSKDSTYSLSSELTLSKADYEKHKVYACEVTHQGLSSPVTKSFNRGEC
modifications: afucosylated
notes: afucosylated bispecific antibody; the final molecule
ADCC effect (A375/H1975/HCC827 cells): stronger ADCC effect than the wild-type antibody containing fucose
tumor (volume) inhibition rate (TGI) [1]: 97.3%
TGI ([2]; H1975, 2 mg/kg Day 7 and Day 21): 97.4%
TGI ([2]; H1975, 8 mg/kg Day 7 and Day 21): 99.3%
TGI ([2]; H1975, 32 mg/kg Day 7 and Day 21): 99.4%
TGI [3]: 72.3%
killing of tumor cells, combination versus single agents, with PBMCs (HCC827-HGF luc; after adding PBMCs): synergistic effect
killing of tumor cells by small molecule inhibitors, without PBMCs (HCC827-HGF luc; without PBMCs): promoted the killing of tumors by the small molecule inhibitors
TGI ([4]; H292, 4 mg/kg/time Day 14, 18, 21): 40.3%
TGI ([4]; H292, 16 mg/kg/time Day 14, 18, 21): 90.5%
TGI [5]: 79.9%
